Assay results as given in PMC5836133.
The other results are listed elsewhere or left out. At the low end of the ranking the order means little.

tested on: T1, GST-NbGlk1(82-244); assay: protein-binding microarray; conditions: NbGlk1 is a Golden2-like transcription factor of Nicotiana benthamiana; high values mean tight binding; most listed sequences are background and not binding sites; double strand, one strand shown;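 note: rank-based score ranging −0.5 to +0.5 with E above 0.45 taken as significant binding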
T1 sequence: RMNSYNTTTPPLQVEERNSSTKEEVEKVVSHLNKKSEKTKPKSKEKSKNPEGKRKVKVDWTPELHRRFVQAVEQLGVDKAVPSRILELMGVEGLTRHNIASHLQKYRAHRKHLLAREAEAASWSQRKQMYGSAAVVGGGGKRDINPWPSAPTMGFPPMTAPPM

Sequence	binding signal [E-score]
ACATGTAA	0.148
ACTTACGG	0.0151
ATGTTACC	-0.0458
ACTGCGAA	-0.036
AAACAATT	0.0478
ACGGATAG	-0.0213
ATCCACTG	0.283
AGGGGAAG	-0.0863
AACGTGGT	-0.181
AGGTCCTA	-0.213
ACAGGCCG	-0.237
CAATTATA	0.186
AAAGTATA	0.122
ACTGTACG	-0.0907
ATACGATA	0.295
ACTAGAAG	0.0752
CACGTCGA	0.0436
ACAGACGC	-0.0252
ACGGAGTG	-0.232
AATAATAT	0.259
ACGTCGCC	-0.0746
AACGCTAG	-0.166
ATCGGCAG	0.0653
ACAGGGGC	-0.215
ATTTATGC	0.00576

Sequence	binding signal [E-score]
AGTGCCGG	-0.181
AGCGGACT	-0.182
AGCGGCCC	-0.378
CAAAACTG	-0.0391
ACTGCATG	-0.0993
AGCCAAAG	-0.195
ATCGTTTC	0.0826
AAATAGAA	0.132
CAAGGGCA	-0.215
AATTATCT	0.159
ATAGAGAA	0.231
AGTGAAAT	0.208
ATAGAGTA	0.104
ATGCAACG	0.066
AAAATGGG	0.011
ATGACTGG	-0.239
ATGAGCAA	-0.0262
ATAGTCCA	-0.00764
ATCTTGGC	0.169
ATAGGGCC	-0.209
ATCGTTCC	-0.0226
CAGAGCTG	-0.156
ACTAACAT	0.121
ACAGTTTG	-0.0957
ACCGACAG	-0.122

Sequence	binding signal [E-score]
AGGCCGCC	-0.275
ACCTGGTG	-0.303
AAGCGTAG	-0.0582
ATATCTAG	0.392
ACGGGAAA	0.142
AAAGCCCA	-0.255
ATTCACGG	0.0555
ATAGGAAT	0.275
CAGAATCA	0.373
CAAACATC	-0.148
ATGATAAT	0.119
ACATGTTG	-0.119
ACTGGTCG	-0.26
ATTCTGGC	0.159
AAGTCGCG	-0.0519
AGAAATGG	-0.0862
ATGGCATC	-0.172
AACTCTAT	-0.0808
CACACTAG	0.0121
ATACCTCG	0.0671
ACACTAAA	0.122
ATTAGAGC	0.00505
ATGGGCCA	-0.0975
AAGCCGTC	-0.322
AGACTTAA	0.0189

Sequence	binding signal [E-score]
CAAGAATG	-0.118
AGCCGAAG	-0.176
ACACCTTA	-0.0509
AAGGGGTA	-0.0374
ATAGACCA	-0.229
ACTTAGGA	0.00132
AGAGTCGC	-0.305
ATCCCGTC	0.144
CAACGCAA	0.155
ACTGATAC	0.204
CACGTCCC	-0.212
ATGGCCGG	-0.275
CACATACG	0.0752
ACGCGCCG	-0.204
AACCACAC	-0.138
ACCGATCA	-0.0483
ATTATTCG	0.192
AATAGGAA	0.121
AAGCCAGG	-0.168
AGAAACTG	-0.0807
ATCAAGTA	0.104
AACCCGGT	-0.271
ACTAGTTG	-0.048
AACATGGA	0.111
AATTGTAC	-0.0224

Sequence	binding signal [E-score]
AAGTCAGA	0.00365
AAGAGCAA	-0.0617
ACAACGGT	-0.0975
ATAGTAAC	-0.0239
ACCCGCGG	-0.121
AGATCTCA	0.413
AACTAGAA	0.207
ATTCTGAC	0.242
ACCTCATG	-0.209
AGAGTTCA	-0.0709
AGGTAAAT	0.205
AAAGTGGA	0.102
ACAGAGAC	-0.0479
CACTTCTC	-0.142
ACGGAGTC	-0.29
ATGAACAG	-0.0477
AACAATCA	0.13
AAGCTCCG	-0.104
AATTCAGC	-0.0198
AATCACGG	0.256
AATACCGA	0.0517
AGGTGCTC	-0.279
AAAACTCG	-0.00869
AGAGGCCT	-0.238
ACGAGCAC	-0.193

Sequence	binding signal [E-score]
AACTAGAC	-0.102
AACACCGC	-0.0281
AGGGGGAT	0.0335
AGCGTGAC	-0.205
AACAAGTT	-0.0851
AAAGACCG	-0.153
CAATGATG	0.0618
ACTTCCCT	-0.115
AAGGCCTC	-0.248
ACAGTTGG	-0.175
AATATATA	0.27
AGGACGTA	-0.0232
ACATTCTA	0.106
ATTAAACG	-0.101
ACAGCCAG	-0.182
AGAGTCGG	-0.192
CAAGGAAG	-0.0946
ACCACTCA	0.036
AAGGTGCC	-0.214
AAAGAAAA	0.147
AACCATCG	-0.0487
ACCGTCAT	-0.0655
AAGACGAC	-0.212
AGATTTAG	0.276
AAGTTTCA	0.0242

Sequence	binding signal [E-score]
AAAAGTGT	-0.0392
AATTTCAT	0.238
ATTACACA	0.31
AGGTGCTG	-0.117
ACCAGCAT	0.0235
AACTCAAG	-0.049
CACGGCTC	-0.197
ATATCCAT	0.43
AGGCCCCT	-0.387
ACACTGCG	-0.154
AAACGCTG	0.00984
ATACATCA	0.0926
ACACCTGC	-0.186
ATCTAACG	0.218
ATACGTTG	0.127
AATCATGT	0.304
AGCTATAC	-0.0325
ACTTTTGC	-0.1
CAACCAGC	-0.206
ATGACAAT	0.139
CACCAAAA	0.039
ATTAGATA	0.304
